The series deals with Escherichia coli (laboratory strain). The experiment in a line: barcode share on antibiotic plates over drug-free plates; higher = less susceptible. The procedure:
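A pool of E. coli strains, each edited to carry one amino-acid change in an essential protein, was grown for 48 h on minimal glucose agar with or without antibiotic; strain barcodes were sequenced; mean of two replicates.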

The mark [1] stands for this setting: antibiotic: carbenicillin, 2× MIC (3.1 µg/mL).
[2] abbreviates: antibiotic: gentamicin, 2× MIC (MIC 0.45 µg/mL).

± gives the standard deviation of the averaged measurements. Laboratory Escherichia coli strains with one amino-acid change in an essential protein, pooled on minimal glucose agar with carbenicillin or gentamicin at twice the control MIC (plus kanamycin and chloramphenicol for the plasmids), 48 h. Fold change of barcode share against drug-free plates; higher = less susceptible. Active = above 20 in both replicates (the paper's putatively resistant). '<' = one read or none on drug, '>' = one read or none on a drug-free plate. Shares are relative, so most strains fall below 1 when a few take over. Listed are strains with at least 15 reads on both drug-free plates, and hits; most hits rest on fewer reference reads. Replicate rank correlation about 0.5. Edits are read from barcodes.

B1: asnS V273A (protein)
chain: MSVVPVADVLQGRVAVDSEVTVRGWVRTRRDSKAGISFLAVYDGSCFDPVQAVINNSLPNYNEDVLRLTTGCSVIVTGKVVASPGQGQQFEIQASKVEVAGWVEDPDTYPMAAKRHSIEYLREVAHLRPRTNLIGAVARVRHTLAQALHRFFNEQGFFWVSTPLITASDTEGAGEMFRVSTLDLENLPRNDQGKVDFDKDFFGKESFLTVSGQLNGETYACALSKIYTFGPTFRAENSNTSRHLAEFWMLEPEVAFANLNDIAGLAEAMLKYAFKAVLEERADDMKFFAERVDKDAVSRLERFIEADFAQVDYTDAVTILENCGRKFENPVYWGVDLSSEHERYLAEEHFKAPVVVKNYPKDIKAFYMRLNEDGKTVAAMDVLAPGIGEIIGGSQREERLDVLDERMLEMGLNKEDYWWYRDLRRYGTVPHSGFGLGFERLIAYVTGVQNVRDVIPFPRTPRNASF
For B1, the “fold change of barcode share” value runs as follows: under setting [1], 0.326 ± 0.031; under setting [2], less than 0.00166.

B2: asnS V273Q (protein)
chain: MSVVPVADVLQGRVAVDSEVTVRGWVRTRRDSKAGISFLAVYDGSCFDPVQAVINNSLPNYNEDVLRLTTGCSVIVTGKVVASPGQGQQFEIQASKVEVAGWVEDPDTYPMAAKRHSIEYLREVAHLRPRTNLIGAVARVRHTLAQALHRFFNEQGFFWVSTPLITASDTEGAGEMFRVSTLDLENLPRNDQGKVDFDKDFFGKESFLTVSGQLNGETYACALSKIYTFGPTFRAENSNTSRHLAEFWMLEPEVAFANLNDIAGLAEAMLKYQFKAVLEERADDMKFFAERVDKDAVSRLERFIEADFAQVDYTDAVTILENCGRKFENPVYWGVDLSSEHERYLAEEHFKAPVVVKNYPKDIKAFYMRLNEDGKTVAAMDVLAPGIGEIIGGSQREERLDVLDERMLEMGLNKEDYWWYRDLRRYGTVPHSGFGLGFERLIAYVTGVQNVRDVIPFPRTPRNASF
As for B2, the “fold change of barcode share” value reads like this: under setting [1], 0.262 ± 0.098; under setting [2], 0.0102 ± 0.0006.

B3: asnS F274A (protein)
chain: MSVVPVADVLQGRVAVDSEVTVRGWVRTRRDSKAGISFLAVYDGSCFDPVQAVINNSLPNYNEDVLRLTTGCSVIVTGKVVASPGQGQQFEIQASKVEVAGWVEDPDTYPMAAKRHSIEYLREVAHLRPRTNLIGAVARVRHTLAQALHRFFNEQGFFWVSTPLITASDTEGAGEMFRVSTLDLENLPRNDQGKVDFDKDFFGKESFLTVSGQLNGETYACALSKIYTFGPTFRAENSNTSRHLAEFWMLEPEVAFANLNDIAGLAEAMLKYVAKAVLEERADDMKFFAERVDKDAVSRLERFIEADFAQVDYTDAVTILENCGRKFENPVYWGVDLSSEHERYLAEEHFKAPVVVKNYPKDIKAFYMRLNEDGKTVAAMDVLAPGIGEIIGGSQREERLDVLDERMLEMGLNKEDYWWYRDLRRYGTVPHSGFGLGFERLIAYVTGVQNVRDVIPFPRTPRNASF
With B3, the “fold change of barcode share” value under setting [1] is 0.2 ± 0.037 and the “fold change of barcode share” value under setting [2] was 0.0168 ± 0.02.

B4: asnS V273W (protein)
chain: MSVVPVADVLQGRVAVDSEVTVRGWVRTRRDSKAGISFLAVYDGSCFDPVQAVINNSLPNYNEDVLRLTTGCSVIVTGKVVASPGQGQQFEIQASKVEVAGWVEDPDTYPMAAKRHSIEYLREVAHLRPRTNLIGAVARVRHTLAQALHRFFNEQGFFWVSTPLITASDTEGAGEMFRVSTLDLENLPRNDQGKVDFDKDFFGKESFLTVSGQLNGETYACALSKIYTFGPTFRAENSNTSRHLAEFWMLEPEVAFANLNDIAGLAEAMLKYWFKAVLEERADDMKFFAERVDKDAVSRLERFIEADFAQVDYTDAVTILENCGRKFENPVYWGVDLSSEHERYLAEEHFKAPVVVKNYPKDIKAFYMRLNEDGKTVAAMDVLAPGIGEIIGGSQREERLDVLDERMLEMGLNKEDYWWYRDLRRYGTVPHSGFGLGFERLIAYVTGVQNVRDVIPFPRTPRNASF
As for B4, the “fold change of barcode share” value is 0.354 ± 0.15 under setting [1] and less than 0.00441 under setting [2].

B5: asnS F274W (protein)
chain: MSVVPVADVLQGRVAVDSEVTVRGWVRTRRDSKAGISFLAVYDGSCFDPVQAVINNSLPNYNEDVLRLTTGCSVIVTGKVVASPGQGQQFEIQASKVEVAGWVEDPDTYPMAAKRHSIEYLREVAHLRPRTNLIGAVARVRHTLAQALHRFFNEQGFFWVSTPLITASDTEGAGEMFRVSTLDLENLPRNDQGKVDFDKDFFGKESFLTVSGQLNGETYACALSKIYTFGPTFRAENSNTSRHLAEFWMLEPEVAFANLNDIAGLAEAMLKYVWKAVLEERADDMKFFAERVDKDAVSRLERFIEADFAQVDYTDAVTILENCGRKFENPVYWGVDLSSEHERYLAEEHFKAPVVVKNYPKDIKAFYMRLNEDGKTVAAMDVLAPGIGEIIGGSQREERLDVLDERMLEMGLNKEDYWWYRDLRRYGTVPHSGFGLGFERLIAYVTGVQNVRDVIPFPRTPRNASF
With B5, the “fold change of barcode share” value by setting is: under setting [1], 0.294 ± 0.035; under setting [2], less than 0.00258.

B6: asnS L383A (protein)
chain: MSVVPVADVLQGRVAVDSEVTVRGWVRTRRDSKAGISFLAVYDGSCFDPVQAVINNSLPNYNEDVLRLTTGCSVIVTGKVVASPGQGQQFEIQASKVEVAGWVEDPDTYPMAAKRHSIEYLREVAHLRPRTNLIGAVARVRHTLAQALHRFFNEQGFFWVSTPLITASDTEGAGEMFRVSTLDLENLPRNDQGKVDFDKDFFGKESFLTVSGQLNGETYACALSKIYTFGPTFRAENSNTSRHLAEFWMLEPEVAFANLNDIAGLAEAMLKYVFKAVLEERADDMKFFAERVDKDAVSRLERFIEADFAQVDYTDAVTILENCGRKFENPVYWGVDLSSEHERYLAEEHFKAPVVVKNYPKDIKAFYMRLNEDGKTVAAMDVAAPGIGEIIGGSQREERLDVLDERMLEMGLNKEDYWWYRDLRRYGTVPHSGFGLGFERLIAYVTGVQNVRDVIPFPRTPRNASF
B6: the “fold change of barcode share” value runs as follows: under setting [1], 0.866 ± 0.69; under setting [2], 0.00585 ± 0.0037.

B7: nadD I30A (protein)
chain: MKSLQALFGGTFDPVHYGHLKPVETLANLAGLTRVTIIPNNVPPHRPQPEANSVQRKHMLELAIADKPLFTLDERELKRNAPSYTAQTLKEWRQEQGPDVPLAFIIGQDSLLTFPTWYEYETILDNAHLIVCRRPGYPLEMAQPQYQQWLEDHLTHNPEDLHLQPAGKIYLAETPWFNISATIIRERLQNGESCEDLLPEPVLTYINQQGLYR
Consider B7, for which the “fold change of barcode share” value by setting is: under setting [1], 0.405 ± 0.052; under setting [2], less than 0.00799.

B8: nadD I30P (protein)
chain: MKSLQALFGGTFDPVHYGHLKPVETLANLPGLTRVTIIPNNVPPHRPQPEANSVQRKHMLELAIADKPLFTLDERELKRNAPSYTAQTLKEWRQEQGPDVPLAFIIGQDSLLTFPTWYEYETILDNAHLIVCRRPGYPLEMAQPQYQQWLEDHLTHNPEDLHLQPAGKIYLAETPWFNISATIIRERLQNGESCEDLLPEPVLTYINQQGLYR
For B8, the “fold change of barcode share” value reads like this: under setting [1], 0.256 ± 0.015; under setting [2], less than 0.00509.

B9: nadD I30W (protein)
chain: MKSLQALFGGTFDPVHYGHLKPVETLANLWGLTRVTIIPNNVPPHRPQPEANSVQRKHMLELAIADKPLFTLDERELKRNAPSYTAQTLKEWRQEQGPDVPLAFIIGQDSLLTFPTWYEYETILDNAHLIVCRRPGYPLEMAQPQYQQWLEDHLTHNPEDLHLQPAGKIYLAETPWFNISATIIRERLQNGESCEDLLPEPVLTYINQQGLYR
With B9, the “fold change of barcode share” value reads like this: under setting [1], 0.181 ± 0.046; under setting [2], less than 0.00361.

B10: nadD I30Q (protein)
chain: MKSLQALFGGTFDPVHYGHLKPVETLANLQGLTRVTIIPNNVPPHRPQPEANSVQRKHMLELAIADKPLFTLDERELKRNAPSYTAQTLKEWRQEQGPDVPLAFIIGQDSLLTFPTWYEYETILDNAHLIVCRRPGYPLEMAQPQYQQWLEDHLTHNPEDLHLQPAGKIYLAETPWFNISATIIRERLQNGESCEDLLPEPVLTYINQQGLYR
With B10, the “fold change of barcode share” value turned out to be 0.391 ± 0.1 under setting [1] and 0.0183 ± 0.014 under setting [2].

B11: nadD I30D (protein)
chain: MKSLQALFGGTFDPVHYGHLKPVETLANLDGLTRVTIIPNNVPPHRPQPEANSVQRKHMLELAIADKPLFTLDERELKRNAPSYTAQTLKEWRQEQGPDVPLAFIIGQDSLLTFPTWYEYETILDNAHLIVCRRPGYPLEMAQPQYQQWLEDHLTHNPEDLHLQPAGKIYLAETPWFNISATIIRERLQNGESCEDLLPEPVLTYINQQGLYR
Regarding B11, the “fold change of barcode share” value by setting is: under setting [1], 0.33 ± 0.053; under setting [2], less than 0.00748.

B12: nadA I259A (protein)
chain: MSVMFDPDTAIYPFPPKPTPLSIDEKAYYREKIKRLLKERNAVMVAHYYTDPEIQQLAEETGGCISDSLEMARFGAKHPASTLLVAGVRFMGETAKILSPEKTILMPTLQAECSLDLGCPVEEFNAFCDAHPDRTVVVYANTSAAVKARADWVVTSSIAVELIDHLDSLGEKIIWAPDKHLGRYVQKQTGGDILCWQGACIVHDEFKTQALTRLQEEYPDAAILVHPESPQAIVDMADAVGSTSQLIAAAKTLPHQRLAVATDRGIFYKMQQAVPDKELLEAPTAGEGATCRSCAHCPWMAMNGLQAIAEALEQEGSNHEVHVDERLRERALVPLNRMLDFAATLRG
Turning to B12, the “fold change of barcode share” value under setting [1] amounted to 0.951 ± 0.34 and the “fold change of barcode share” value under setting [2] amounted to 0.182 ± 0.23.

B13: nadA M270A (protein)
chain: MSVMFDPDTAIYPFPPKPTPLSIDEKAYYREKIKRLLKERNAVMVAHYYTDPEIQQLAEETGGCISDSLEMARFGAKHPASTLLVAGVRFMGETAKILSPEKTILMPTLQAECSLDLGCPVEEFNAFCDAHPDRTVVVYANTSAAVKARADWVVTSSIAVELIDHLDSLGEKIIWAPDKHLGRYVQKQTGGDILCWQGACIVHDEFKTQALTRLQEEYPDAAILVHPESPQAIVDMADAVGSTSQLIAAAKTLPHQRLIVATDRGIFYKAQQAVPDKELLEAPTAGEGATCRSCAHCPWMAMNGLQAIAEALEQEGSNHEVHVDERLRERALVPLNRMLDFAATLRG
For B13, the “fold change of barcode share” value is, setting by setting: under setting [1], 0.584 ± 0.2; under setting [2], 0.108 ± 0.081.

B14: nadA V260A (protein)
chain: MSVMFDPDTAIYPFPPKPTPLSIDEKAYYREKIKRLLKERNAVMVAHYYTDPEIQQLAEETGGCISDSLEMARFGAKHPASTLLVAGVRFMGETAKILSPEKTILMPTLQAECSLDLGCPVEEFNAFCDAHPDRTVVVYANTSAAVKARADWVVTSSIAVELIDHLDSLGEKIIWAPDKHLGRYVQKQTGGDILCWQGACIVHDEFKTQALTRLQEEYPDAAILVHPESPQAIVDMADAVGSTSQLIAAAKTLPHQRLIAATDRGIFYKMQQAVPDKELLEAPTAGEGATCRSCAHCPWMAMNGLQAIAEALEQEGSNHEVHVDERLRERALVPLNRMLDFAATLRG
With B14, the “fold change of barcode share” value amounted to 0.635 ± 0.068 under setting [1] and 0.0606 ± 0.07 under setting [2].

These data come from the supplement of paper PMC11876631.
